# Some of the results follow.
# B1: SialidaseA (Arthrobacter ureafaciens) (protein)
# chain: MRSNSTSAPSLVRRAATGVLTCAVSIGLLAGLGLPAQAAPTPPNSPTLPPGSFSETNLAADRTAANFFYRIPALTYLGNDVVLAAWDGRPGSAADAPNPNSIVQRRSTDGGKTWGPVQVIAAGHVADASGPRYGYSDPSYIYDAEANKVFAFFVYSKDQGFGGSQFGNDDADRNVISSAVIESSDAGVTWSQPRLITSVTKPGTSKTNPAAGDVRSNFASSGEGIQLKYGPHKGRLIQQYAGDVRQADGSNKIQAYSVYSDDHGVTWHKGANVGDRMDENKTVELSDGRVLLNSRDNANRGYRKVAVSTDGGATYGPVSQDTELPDPANNGAIARMFPNAAQGSADAKKLIFTNANSKTGRENVSARVSCDDGETWPGVRTIRSGFSAYSTVTRLADGKFGVLYEGNYTDNMPFATFDDAWLNYVCAPLAVPAVNIAPSATQEVPVTVTNQEATTLSGATATVYTPSGWSATTVPVPDVAPGASVTVTVALTAPADASGPRSLNAAFTTADGRVSQFTFTATTPVAPQVGLTITGSAPARDVAANPYQAGDVLGYTLNVKSTANVAANSVPLTGTFDSGFLPPAAPNCRYNNLAAGASYNCTTAKHTITAADMERGYFVPEATFSITSTTTPSLTKTVQFTGAAVALRDGLISADISGARTDVGRDLATRPYAAGELVPYAFTVKNTSPFVEQVVPTAGNFSPFLPAGAGNCRYLSLPAGQSYECATPRHAVTAEEVEQGFFVPDTTWEVSAAGQSTRTYRINGGEVDLLVRDAALSATVVAEWKDADGDRFASAGDPVTFTYTVGNAGNVALTGLEAPDAGISLPFLAPGDTATATREHVLTAADVAGGSLAASAFEATARNGSKEVTATAEGQPLELKVQPAQPSKEPELTVQDLEDQTPPFDLGTAFKYRTGQKVSLAGLEYGQWYYVYLNKTGYRLGWMFPTTGDTVEFILPPEVRNGRDDVVVLDKDGRRVSFDRLQVTPKGEKI
# How the values were obtained:
# Test in all cases: glycan array binding signal (z-score within array); higher = stronger binding
# Settings in all cases: glycan notation: IUPAC condensed, linker removed
# [1] = biological target: Gal(b1-3)GlcNAc(b1-2)Man(a1-3)[Gal(b1-3)GlcNAc(b1-2)Man(a1-6)]Man(b1-4)GlcNAc(b1-4)[Fuc(a1-6)]GlcNAc
# How it was run: (§1)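 Glycan array data were curated from 3228 arrays in the Consortium for Functional Glycomics database and kept only where the protein sequence was available. Glycan names were converted to IUPAC-condensed notation, and columns mapping to the same glycan were averaged. The binding signal is a within-array Z-score, averaged across arrays of the same protein sequence at different concentrations or buffers and across linkers. Negative Z-scores can be read as non-binding.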
# [2] = biological target: Gal(b1-3)GlcNAc(b1-2)Man(a1-3)[GlcNAc(b1-4)][Gal(b1-3)GlcNAc(b1-2)Man(a1-6)]Man(b1-4)GlcNAc(b1-4)GlcNAc
# How it was run: as §1
# [3] = biological target: Gal(b1-3)GlcNAc(b1-2)[Gal(b1-3)GlcNAc(b1-6)]Man(a1-6)[Gal(b1-3)GlcNAc(b1-2)Man(a1-3)]Man(b1-4)GlcNAc(b1-4)GlcNAc
# How it was run: as §1
# [4] = biological target: Gal(b1-3)GlcNAc(b1-3)Gal(b1-3)GlcNAc
# How it was run: as §1
# [5] = biological target: Gal(b1-3)GlcNAc(b1-3)Gal(b1-4)Glc
# How it was run: as §1
# [6] = biological target: Gal(b1-3)GlcNAc(b1-3)Gal(b1-4)GlcNAc
# How it was run: as §1
# [7] = biological target: Gal(b1-3)GlcNAc(b1-3)Gal(b1-4)GlcNAc(b1-2)Man(a1-3)[Gal(b1-3)GlcNAc(b1-3)Gal(b1-4)GlcNAc(b1-2)Man(a1-6)]Man(b1-4)GlcNAc(b1-4)GlcNAc
# How it was run: as §1
# [8] = biological target: Gal(b1-3)GlcNAc(b1-3)Gal(b1-4)GlcNAc(b1-2)[Gal(b1-3)GlcNAc(b1-3)Gal(b1-4)GlcNAc(b1-6)]Man(a1-6)[Gal(b1-3)GlcNAc(b1-3)Gal(b1-4)GlcNAc(b1-2)Man(a1-3)]Man(b1-4)GlcNAc(b1-4)[Fuc(a1-6)]GlcNAc
# How it was run: as §1
# [9] = biological target: Gal(b1-3)GlcNAc(b1-3)Gal(b1-4)GlcNAc(b1-3)Gal(b1-4)GlcNAc(b1-2)[Gal(b1-3)GlcNAc(b1-3)Gal(b1-4)GlcNAc(b1-3)Gal(b1-4)GlcNAc(b1-6)]Man(a1-6)[Gal(b1-3)GlcNAc(b1-3)Gal(b1-4)GlcNAc(b1-3)Gal(b1-4)GlcNAc(b1-2)Man(a1-3)]Man(b1-4)GlcNAc(b1-4)[Fuc(a1-6)]GlcNAc
# How it was run: as §1
# [10] = biological target: Gal(b1-3)GlcNAc(b1-3)Gal(b1-4)GlcNAc(b1-6)[Gal(b1-3)GlcNAc(b1-3)]Gal(b1-4)Glc
# How it was run: as §1
# [11] = biological target: Gal(b1-3)GlcNAc(b1-3)Gal(b1-4)[Fuc(a1-3)]GlcNAc
# How it was run: as §1
# [12] = biological target: Gal(b1-3)GlcNAc(b1-3)Gal(b1-4)[Fuc(a1-3)]GlcNAc(b1-6)[Gal(b1-3)GlcNAc(b1-3)]Gal(b1-4)Glc
# How it was run: as §1
# [13] = biological target: Gal(b1-3)GlcNAc(b1-3)GalNAc
# How it was run: as §1
# [14] = biological target: Gal(b1-3)GlcNAc(b1-6)Gal(b1-4)GlcNAc
# How it was run: as §1
# [15] = biological target: Gal(b1-3)GlcNAc(b1-6)GalNAc
# How it was run: as §1
# [16] = biological target: Gal(b1-3)GlcNAc(b1-6)[Gal(b1-3)]GalNAc
# How it was run: as §1
# [17] = biological target: Gal(b1-3)GlcNAc6S
# How it was run: as §1
# [18] = biological target: Gal(b1-3)[Fuc(a1-4)]GlcNAc
# How it was run: as §1
# [19] = biological target: Gal(b1-3)[Fuc(a1-4)]GlcNAc(b1-2)Man
# How it was run: as §1
# [20] = biological target: Gal(b1-3)[Fuc(a1-4)]GlcNAc(b1-2)Man(a1-3)[Gal(b1-3)[Fuc(a1-4)]GlcNAc(b1-2)Man(a1-6)]Man(b1-4)GlcNAc(b1-4)[Fuc(a1-6)]GlcNAc
# How it was run: as §1
# [21] = biological target: Gal(b1-3)[Fuc(a1-4)]GlcNAc(b1-3)Gal(b1-3)[Fuc(a1-4)]GlcNAc
# How it was run: as §1
# [22] = biological target: Gal(b1-3)[Fuc(a1-4)]GlcNAc(b1-3)Gal(b1-4)[Fuc(a1-3)]GlcNAc
# How it was run: as §1
# [23] = biological target: Gal(b1-3)[Fuc(a1-4)]GlcNAc(b1-6)GalNAc
# How it was run: as §1
# [24] = biological target: Gal(b1-3)[GlcNAc(b1-6)]GalNAc
# How it was run: as §1
# [25] = biological target: Gal(b1-3)[Neu5Ac(a2-6)]GalNAc
# How it was run: as §1
# [26] = biological target: Gal(b1-3)[Neu5Ac(a2-6)]GlcNAc(b1-4)Gal(b1-4)Glc
# How it was run: as §1
# [27] = biological target: Gal(b1-3)[Neu5Ac(b2-6)]GalNAc
# How it was run: as §1
# [28] = biological target: Gal(b1-4)Gal
# How it was run: as §1
# [29] = biological target: Gal(b1-4)GalNAc(a1-3)[Fuc(a1-2)]Gal(b1-4)GlcNAc
# How it was run: as §1
# [30] = biological target: Gal(b1-4)GalNAc(b1-3)[Fuc(a1-2)]Gal(b1-4)GlcNAc
# How it was run: as §1
binder,measurement,setting,value
B1,glycan array binding signal (z-score),[1],0.029
same,glycan array binding signal (z-score),[2],-0.31
same,glycan array binding signal (z-score),[3],-0.146
same,glycan array binding signal (z-score),[4],-0.696
same,glycan array binding signal (z-score),[5],-0.55
same,glycan array binding signal (z-score),[6],-0.792
same,glycan array binding signal (z-score),[7],-0.647
same,glycan array binding signal (z-score),[8],0.572
same,glycan array binding signal (z-score),[9],0.18
same,glycan array binding signal (z-score),[10],-0.464
same,glycan array binding signal (z-score),[11],-0.406
same,glycan array binding signal (z-score),[12],-0.842
same,glycan array binding signal (z-score),[13],-0.646
same,glycan array binding signal (z-score),[14],-0.241
same,glycan array binding signal (z-score),[15],-0.678
same,glycan array binding signal (z-score),[16],-0.717
same,glycan array binding signal (z-score),[17],-0.625
same,glycan array binding signal (z-score),[18],-0.613
same,glycan array binding signal (z-score),[19],-0.159
same,glycan array binding signal (z-score),[20],-0.438
same,glycan array binding signal (z-score),[21],-0.635
same,glycan array binding signal (z-score),[22],-0.741
same,glycan array binding signal (z-score),[23],-0.258
same,glycan array binding signal (z-score),[24],-0.567
same,glycan array binding signal (z-score),[25],1.34
same,glycan array binding signal (z-score),[26],2.48
same,glycan array binding signal (z-score),[27],2.4
same,glycan array binding signal (z-score),[28],-0.692
same,glycan array binding signal (z-score),[29],-0.867
same,glycan array binding signal (z-score),[30],-0.546

# From the supplement of paper PMC8728848
